# The supplement of paper PMC9446081
# The whole screen tested about 39,000 compounds, of which about 220 (0.56%) showed activity. The list shows a part of the results.
# Test system: Escherichia coli K-12 BW25113
# Test: relative growth (OD600 normalised to plate interquartile mean) (fraction); higher = less growth inhibition, active = 0.2 or less
# Settings: 50 µM; LB; incubation time: overnight (16-24 h)
# 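Also: static incubation at 37 °C against the wild-type strain, values averaged over two biological replicates.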
row,Structure (SMILES),relative growth
1,CC(C)c1cc(C(C)C)c(CC(=O)NS(=O)(=O)Oc2c(C(C)C)cccc2C(C)C)c(C(C)C)c1,inactive: 0.738
2,COc1ccc(NC(=O)N(C)C[C@H]2OCCCC[C@@H](C)Oc3ccc(NC(=O)CCC(F)(F)F)cc3C(=O)N([C@H](C)CO)C[C@@H]2C)cc1,inactive: 1.04
3,C[C@@H]1CCCCO[C@@H](CN(C)C(=O)Cc2ccccc2)[C@@H](C)CN([C@@H](C)CO)C(=O)c2cc(NC(=O)CCC(F)(F)F)ccc2O1,inactive: 0.993
4,C[C@@H]1CN([C@H](C)CO)C(=O)c2cccc(NC(=O)C3CCCCC3)c2O[C@@H]1CN(C)S(=O)(=O)c1cn(C)cn1,inactive: 1.01
5,COc1ccc(NC(=O)N(C)C[C@@H]2Oc3ncc(C#CC(C)C)cc3C(=O)N([C@H](C)CO)C[C@@H]2C)cc1,inactive: 0.984
6,C[C@H]1CN([C@@H](C)CO)C(=O)Cc2cc(NS(C)(=O)=O)ccc2O[C@H]1CN(C)S(=O)(=O)c1ccccc1,inactive: 0.967
7,COc1ccc(S(=O)(=O)N(C)C[C@H]2Oc3ccc(NC(=O)Nc4c(C)noc4C)cc3CC(=O)N([C@H](C)CO)C[C@@H]2C)cc1,inactive: 0.991
8,CCCCC(=O)OC1CCC2C3CCc4cc(O)ccc4C3CCC12C (stereo not drawn),inactive: 0.873
9,C[C@H]1CCCCO[C@H](CN(C)C(=O)c2ccccc2)[C@@H](C)CN([C@@H](C)CO)C(=O)c2cc(NC(=O)Nc3ccccc3)ccc2O1,inactive: 1.03
10,CC(C)C#Cc1ccc2c(c1)O[C@H](CN(C)C(=O)Cc1ccccn1)[C@H](C)CN([C@@H](C)CO)S2(=O)=O,inactive: 0.986
11,CC(C)NC(=O)N(C)C[C@H]1Oc2ccc(NC(=O)Cc3ccccc3)cc2C(=O)N([C@@H](C)CO)C[C@@H]1C,inactive: 1.01
12,C[C@H](CO)N1C[C@H](C)[C@@H](CN(C)C(=O)Nc2ccc(C(F)(F)F)cc2)Oc2ccc(NC(=O)Cc3cn(C)c4ccccc34)cc2C1=O,inactive: 0.978
13,C[C@H](CO)N1C[C@H](C)[C@H](CN(C)CC2CCCCC2)OCCCC[C@H](C)Oc2ccc(NS(=O)(=O)c3ccc(Cl)cc3)cc2C1=O,inactive: 0.973
14,C[C@@H]1CCCCO[C@H](CN(C)C(=O)C2CCCCC2)[C@H](C)CN([C@@H](C)CO)C(=O)c2cc(NC(=O)Nc3ccc(C(F)(F)F)cc3)ccc2O1,inactive: 1.02
15,C[C@@H]1CN([C@@H](C)CO)C(=O)c2cc(NC(=O)Nc3ccc4c(c3)OCO4)ccc2O[C@@H](C)CCCCO[C@@H]1CN(C)Cc1ccc(C(F)(F)F)cc1,inactive: 1.05
16,CCOc1ccc(Cc2cc(C3OC(CO)C(O)C(O)C3O)ccc2Cl)cc1 (stereo not drawn),inactive: 0.906
17,CO[C@@H]1CN(C)C(=O)c2cc(NS(C)(=O)=O)ccc2OC[C@@H](C)N(C(=O)C2CCOCC2)C[C@H]1C,inactive: 1
18,Cc1noc(C)c1S(=O)(=O)Nc1ccc2c(c1)C(=O)N([C@@H](C)CO)C[C@@H](C)[C@@H](CN(C)Cc1ccc(C(F)(F)F)cc1)OCCCC[C@@H](C)O2,inactive: 1.05
19,C[C@H]1CCCCO[C@H](CN(C)Cc2ccc(C(F)(F)F)cc2)[C@@H](C)CN([C@@H](C)CO)C(=O)c2cc(NC(=O)Nc3ccc(F)cc3)ccc2O1,inactive: 1.03

row,Structure (SMILES),relative growth
1,CO[C@@H]1CN(C)C(=O)c2cc(NS(=O)(=O)CC(F)(F)F)ccc2OC[C@@H](C)N(Cc2cccnc2)C[C@@H]1C,inactive: 0.995
2,C[C@@H]1CCCCO[C@H](CN(C)CC2CCCCC2)[C@H](C)CN([C@H](C)CO)C(=O)c2cc(NC(=O)NC3CCCCC3)ccc2O1,inactive: 0.99
3,C[C@@H]1CCCCO[C@@H](CN(C)S(=O)(=O)c2ccccc2)[C@@H](C)CN([C@@H](C)CO)C(=O)c2cc(NC(=O)Nc3ccc(C(F)(F)F)cc3)ccc2O1,inactive: 0.973
4,COC(=O)/C=c1\sc2n(c1=O)CCN=2,inactive: 1.02
5,COc1ccc(CN2CCN(C(c3ccc(F)cc3)c3ccc(F)cc3)CC2)c(OC)c1OC.Cl,inactive: 1
6,COc1ccc(NC(=O)N(C)C[C@H]2OCc3cn(nn3)CCCC(=O)N([C@@H](C)CO)C[C@H]2C)c(OC)c1,inactive: 1.01
7,COc1ccccc1NC(=O)N(C)C[C@@H]1Oc2cc(Br)ccc2S(=O)(=O)N([C@@H](C)CO)C[C@@H]1C,inactive: 1
8,C[C@H](CO)N1C[C@H](C)[C@H](CN(C)C(=O)Cc2ccccc2)Oc2cc(C#CC3(O)CCCC3)ccc2S1(=O)=O,inactive: 0.985
9,Cc1noc(C)c1S(=O)(=O)N(C)C[C@@H]1OCc2cnnn2CCCC(=O)N([C@@H](C)CO)C[C@H]1C,inactive: 1.01
10,CC(C)NC(=O)N(C)C[C@@H]1Oc2cc(C#Cc3ccccn3)ccc2S(=O)(=O)N([C@H](C)CO)C[C@@H]1C,inactive: 0.991
11,CC(=O)OC1(C(C)=O)CCC2C3C=C(Cl)C4=CC(=O)CCC4(C)C3CCC21C (stereo not drawn),inactive: 1.04
12,Cc1noc(C)c1NC(=O)N(C)C[C@H]1Oc2ncc(C#CCN(C)C)cc2C(=O)N([C@@H](C)CO)C[C@H]1C,inactive: 1.02
13,C[C@H]1CN([C@@H](C)CO)C(=O)Cc2cc(NC(=O)Nc3cccc4ccccc34)ccc2O[C@H]1CN(C)Cc1ccc(C(F)(F)F)cc1,inactive: 1.03
14,C[C@@H]1CN([C@H](C)CO)C(=O)Cc2cc(NS(=O)(=O)c3cn(C)cn3)ccc2O[C@H]1CN(C)S(=O)(=O)c1ccccc1,inactive: 1.01
15,C[C@@H]1CN([C@H](C)CO)C(=O)c2cc(-c3cccc(C(=O)N(C)C)c3)cnc2O[C@H]1CN(C)S(=O)(=O)c1ccc(F)cc1,inactive: 1
16,CCOc1ccc(NC2=NC(=O)/C(=C/c3cc(Br)c(OCc4ccccc4)c(OC)c3)S2)cc1,inactive: 1.07
17,C[C@H](CO)N1C[C@H](C)[C@H](CN(C)S(=O)(=O)c2ccc(F)cc2)Oc2ccc(N(C)C)cc2CC1=O,inactive: 0.999
18,COc1ccc(S(=O)(=O)N(C)C[C@@H]2Oc3c(cccc3N(C)C)C(=O)N([C@@H](C)CO)C[C@H]2C)cc1,inactive: 0.985
19,CNC[C@H]1Oc2ccc(NC(=O)Cn3cnnn3)cc2C(=O)N([C@H](C)CO)C[C@@H]1C,inactive: 0.898
